Whole data set: some 33,000 sequences, median “E-score (-0.5 to 0.5)” near -0.035, cut for the highest 2% near 0.34. The list shows a part of the results.
Target: T1, Mot3 (UniProt P54785)
T1 sequence: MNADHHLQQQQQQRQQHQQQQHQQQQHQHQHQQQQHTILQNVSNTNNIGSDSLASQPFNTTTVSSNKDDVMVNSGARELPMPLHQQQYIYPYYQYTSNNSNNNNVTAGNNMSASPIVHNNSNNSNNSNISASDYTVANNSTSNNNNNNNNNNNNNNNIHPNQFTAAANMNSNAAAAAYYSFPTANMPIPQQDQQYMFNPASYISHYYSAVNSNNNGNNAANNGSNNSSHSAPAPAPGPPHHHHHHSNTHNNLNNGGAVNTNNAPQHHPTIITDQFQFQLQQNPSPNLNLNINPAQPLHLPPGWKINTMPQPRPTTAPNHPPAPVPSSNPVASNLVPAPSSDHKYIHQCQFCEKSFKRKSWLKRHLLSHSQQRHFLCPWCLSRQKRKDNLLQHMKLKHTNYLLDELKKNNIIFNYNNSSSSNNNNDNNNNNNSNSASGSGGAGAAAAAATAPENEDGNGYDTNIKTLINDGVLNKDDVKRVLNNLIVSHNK
Assay: PBM E-score (8-mer binding enrichment) (E-score (-0.5 to 0.5)); higher = stronger / more preferred TF binding; most listed sequences are background and not binding sites
Settings: protein concentration: 200 nM; construct: GST-full length
How it was run: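 E-scores (a modified Wilcoxon-Mann-Whitney statistic) were assigned by the Universal PBM Analysis Suite to every ungapped eight-base word pooled with its reverse complement. The input came from universal all-10-mer Agilent arrays made double-stranded by primer extension and probed with GST-tagged yeast transcription factors at about 100-200 nM. Fluorescent anti-GST detected bound protein, and masliner normalised the scans.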

Sequence | PBM E-score
GCCCGGAC | -0.312
AAACCACT | -0.0392
CTGATTGA | -0.0468
GAACAGGC | 0.312
CCTCCGAA | -0.18
AAACCCTC | 0.0338
TGTATAAA | 0.257
ACAGAACC | -0.0861
ACCTGATC | -0.143
TATCAAGA | -0.00554
AACGCTTG | 0.0105
CGAGAGCG | -0.0881
AACGATGA | -0.127
ACCCATAT | -0.118
GTTTACGA | 0.206
ACTCGGAG | -0.214
CCGCTCCG | -0.227
CAGGCGCG | 0.156
TACTATAA | 0.0867
CAGCAACC | -0.184
GCCCGCAC | -0.186
ACGATATG | 0.0654
ATGTACGC | 0.222
ACATTTAA | 0.252
CTCTTAAC | 0.109

Sequence | PBM E-score
ACGAGAAC | 0.0296
CTGACTCC | -0.211
GCACGGTA | -0.0184
GCTGATAC | -0.0605
CCCCAGGA | -0.166
CCGTCGAC | -0.171
AATGACCG | -0.198
ATCTGCTA | 0.00543
AATGCGCG | 0.0273
GTGGTAGA | -0.122
CTCGCGCA | -0.249
ACACGCCT | 0.294
AATGGCAC | -0.119
GTCCCCAA | -0.232
GCAGGTAA | 0.385
ATACCCAA | -0.0373
CAAGGCGG | -0.123
AGAAGCTA | -0.135
ACGTTGAC | 0.0852
AATCGTCG | -0.0578
CCCCGAAA | -0.156
ACCTTAAG | 0.0486
ATGAACCG | 0.0149
ACGAAAGC | -0.058
TAATCACA | 0.19

Sequence | PBM E-score
CCACAGAC | -0.113
GGACTCAC | -0.343
ACCGGTGG | -0.441
GAGGTCAC | -0.307
CGACCCCC | -0.258
CTTCTCGA | -0.00621
CTAAACGA | 0.0191
AACGCCGG | -0.147
GACCTAAC | -0.0438
GGAAAGGA | 0.0433
AAGTGTGT | 0.209
GCCGATGA | -0.249
GGCTTCAC | -0.342
AGTCTGAT | -0.17
CGAGGACA | -0.0813
GAGACACC | -0.134
ATGCCCAA | -0.0977
ACGCGATC | 0.0832
CATATAGA | -0.00822
ATCTGGTG | -0.00173
ATGTTGTA | 0.286
AGCTGCTG | -0.0897
ACACAAAA | 0.226
CTTTCCCC | -0.0549
ACTGAAAC | 0.0956

Sequence | PBM E-score
CCGCCGGC | -0.256
CCGTCAGA | -0.265
GCGTAGAA | 0.232
CACGACCC | -0.174
CGTCTATA | -0.0683
ACAGTAGT | -0.0747
ATTTTTAC | 0.34
AACCTAGT | -0.0142
ACTGTGTG | 0.185
GATTTGTA | 0.182
GTTGTTGA | 0.21
CGCTTTAG | -0.134
AGTGAACA | 0.0824
TGGTCGAA | -0.124
TAGAAATA | 0.145
AGAATGCC | -0.194
ATGTAAGG | 0.298
CCAGAGCC | -0.163
GACTAATA | -0.0111
CGCTTCTC | -0.155
ACGGCCGA | -0.0938
CAGCGTCG | -0.00757
GGAACTGA | 0.0134
ACGGATAG | -0.0201
AGTTAGCC | -0.17

Sequence | PBM E-score
CAAACCCG | -0.166
GATCTATA | -0.0636
CTGGCCAC | -0.0841
ACCTGTCC | -0.218
CCATATGC | -0.141
CAGCATCG | -0.243
AGGGATTC | -0.274
CGCTGGCA | -0.107
CCCCATAA | -0.0223
CCTATTAG | 0.0489
AATTTTGC | 0.169
AAGCCCTG | -0.0744
AATATGCG | -0.0421
GAAATGAC | 0.0628
CCACTATA | -0.114
GTTTCCGA | 0.122
CCCATTCG | 0.0267
GCCGGAGC | -0.252
GCAGGACC | -0.237
AAATTCTG | -0.0708
AAGATTGG | -0.103
GGCACGAC | 0.36
AGAGACTA | -0.146
CACAGCTC | 0.0935
ACCTAGTG | 0.0114

Sequence | PBM E-score
CAACTTCC | -0.0487
TCAGGGAA | -0.128
TCTTGCCA | -0.107
AAATGCAG | -0.0543
GCGCCATA | -0.291
AGTTTGCA | -0.0759
CCGATCCC | -0.343
CACAGATC | 0.0715
AATGGGTC | -0.358
CGTCGTAA | 0.0759
ACCATAAT | -0.0317
CATTCACA | 0.0613
ACTTGCTC | -0.12
CCCAGGCG | -0.061
CTCTTCTC | -0.15
CATGTTTA | 0.371
GTCAGTTA | -0.165
CCGGCAAA | -0.0759
GTAATAAA | 0.28
AGCACAAT | -0.00086
ACACCATC | 0.122
ACCTGTTC | 0.152
AAAGACAA | 0.16
CATGTGGG | -0.0314
AACGGTTC | -0.172

Sequence | PBM E-score
CACAGTGA | 0.0683
ATCTACTG | -0.0684
GCACGTTA | 0.225
ACCGACGT | -0.0732
TAACGGAA | -0.0117
CACTTGGG | -0.201
ACCCGGGT | -0.259
AGCGCTTC | -0.0956
CAAAATGG | -0.0164
CCCGAACG | -0.257
AGTATCAG | -0.111
ATGGCAAG | -0.174
CTCGAGGA | -0.107
ACGGGACC | -0.117
AAGAGCAT | 0.133
ACATGGTG | 0.319
CTTTGAGA | 0.0107
ATTCCGCA | -0.169
AACCCATG | 0.185
AAATGTTC | 0.0938
CTAAAAGC | -0.334
CAACATTC | 0.0308
TGCCACAA | 0.0602
CGTTACGC | 0.118
CCCCCTTC | -0.372

Sequence | PBM E-score
ACAACGGA | 0.0699
ATCACATG | 0.195
GCCAATAC | 0.13
ATAAGTGA | -0.0522
AGCGTAGA | -0.0536
AGCTGCCC | -0.161
AATCAGGA | 0.0803
GACCCGCC | -0.0825
CTACATAG | 0.316
CTGATCCC | -0.0724
GCTTGCGA | -0.0364
ATTCATTG | 0.143
ACCACGAC | -0.194
AAGCTCAC | -0.0799
AGATGGCT | -0.146
CCCCTCGG | -0.121
ATGAGCGC | -0.103
AAAGATTA | 0.0709
CGCTCTTC | -0.174
AAACTAGT | 0.0999
GATTCCGA | -0.315
GGACAGAA | -0.199
CAGACTCA | -0.127
GTACACCA | 0.134
ACTCGCCG | -0.0977

Sequence | PBM E-score
CATCCCGC | -0.167
CGTCGCGC | -0.378
GGACGATA | -0.153
AGCCGCGA | -0.27
ATACGAGG | -0.147
GATGCAAC | -0.199
CTTGCTGC | -0.174
CGTTCAAC | 0.0786
AGGAAAGG | 0.371
ACACGAAG | 0.298
TTAAGGAA | 0.398
ACCGTGAG | -0.254
CTAGATCA | -0.132
CATGGCTA | -0.0348
GCTTATTA | 0.108
ACGTTATG | 0.161
CCTAACAG | 0.0654
TCGCCTAA | 0.0287
CGCAGTAC | -0.235

— the supplement of paper PMC3334620
